According to the supplement of paper PMC3334620:
Over roughly 33,000 sequences, “E-score (-0.5 to 0.5)” has its median near -0.013; the highest 2% begin near 0.3. The list shows a part of the results.

What follows are sequences tested against T1, Msn1 (UniProt P22148) (assay: PBM E-score (8-mer binding enrichment) (E-score (-0.5 to 0.5)); higher = stronger / more preferred TF binding; most listed sequences are background and not binding sites). Conditions: protein concentration: 200 nM; construct: GST-full length.
T1 sequence: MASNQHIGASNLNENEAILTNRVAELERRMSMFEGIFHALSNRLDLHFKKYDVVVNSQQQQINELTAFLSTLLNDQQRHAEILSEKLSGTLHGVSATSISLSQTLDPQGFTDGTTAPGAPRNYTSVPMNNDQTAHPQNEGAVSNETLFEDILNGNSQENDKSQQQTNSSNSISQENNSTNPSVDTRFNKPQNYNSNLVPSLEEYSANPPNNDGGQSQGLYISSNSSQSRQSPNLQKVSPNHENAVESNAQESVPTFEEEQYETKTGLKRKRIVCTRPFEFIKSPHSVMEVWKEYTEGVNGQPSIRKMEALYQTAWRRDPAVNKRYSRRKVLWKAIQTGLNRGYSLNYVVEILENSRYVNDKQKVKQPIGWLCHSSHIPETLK
Summary of the method: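 For each ungapped eight-base word taken together with its reverse complement, the Universal PBM Analysis Suite assigned an E-score. Binding data came from GST-tagged yeast transcription factors, applied at about 100-200 nM, on universal all-10-mer Agilent arrays made double-stranded by primer extension. Fluorescent anti-GST marked bound protein, and scans were normalised with masliner.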

Sequence | PBM E-score
ATCACCCA | -0.118
GGTTATTA | -0.0629
GTACGACA | 0.345
ACGCATTC | 0.00468
CACAGATA | -0.0238
CAGTCTGC | 0.0419
AGGGACAC | 0.45
GGGGCTTA | -0.244
ACTTCACG | 0.0788
AGCGACGC | 0.00685
AAACACCG | 0.0722
ACGATAGC | 0.0171
ACTTTAGA | 0.0439
GTGCGGAA | 0.0291
GATTCAAC | 0.0385
ATGACCAC | 0.0116
GGACCATA | -0.0194
AATTCCGC | 0.146
AAAAGCAT | 0.0095
AGCGAGCT | 0.0839
CGCGTGAG | 0.0732
AGGTTCAC | -0.0728

Sequence | PBM E-score
AAACTACT | 0.152
GACCGGTA | -0.22
ACTCCAGG | -0.0858
GCTAGTAA | -0.0133
AGTGTATA | -0.0751
CAATCTAA | 0.0421
GAGTTCGC | 0.0343
AACGGAGA | -0.0978
ATATCGCG | 0.212
CGTTGATC | 0.0761
CCTAGCCC | -0.203
AAAGATGT | 0.0547
GAGGAGCC | -0.205
CACAGGCA | -0.24
ACGCGTGA | 0.147
ACTGTGGC | -0.204
GGCAGTCA | -0.0497
CAAGGCTG | -0.131
CGTGCGTC | 0.2
CATTCACC | 0.0597
GGTAACTA | 0.18
CGGCCGGC | -0.0198

Sequence | PBM E-score
AACGTACA | 0.106
CAGGAAAG | -0.145
CCTAAAAG | 0.0165
CTCCACTC | -0.348
CGCCTTAG | -0.102
AACGCCCA | -0.143
CGTTCGGA | 0.226
CACAGGGA | -0.0953
CAGAAACC | -0.0701
AGCTGTCA | -0.06
AACGGCTC | 0.0232
AAGTGGTG | -0.0982
CGCTTTCC | -0.181
CAGCCAAA | 0.0962
TAACGGCA | 0.0672
AACCTGCG | -0.237
ACACTCAC | -0.0194
ACTCTTAA | -0.035
ACTCATGC | -0.114
CCGAGTCG | -0.14
CCCACTAC | -0.026
ATAGACTA | 0.00413

Sequence | PBM E-score
ATCCAAGC | -0.214
CATCTACA | 0.157
AAGCAAGT | 0.00084
CCACGTGC | -0.00789
GACTGGCC | -0.255
GCATCAAA | -0.00088
AAGACTAC | -0.142
GGCGGCTA | -0.0252
CCTCGCCA | -0.244
AGATCCTA | 0.136
AGACGCAC | -0.0633
CCACGTGG | -0.276
ACCCACGC | -0.134
CACCTTGA | -0.1
TTCGAGAA | 0.136
CCGTAAGC | 0.00215
ACAAATCC | 0.265
AACACGGG | -0.109
GGGTCATA | -0.0644
GTGGTCGA | -0.202
ACTACTGG | -0.184
ATCGAGGG | -0.111

Sequence | PBM E-score
CGCAACCC | -0.0602
CTGTCAGC | -0.0746
CTAGACTA | -0.0108
GCCAGTAC | -0.217
CTAGGGGC | -0.382
CTTAAACA | -0.103
GACTGGAC | 0.0789
GAGGTAGA | -0.145
CTTTAGTC | 0.0532
ATGCCGCG | 0.0512
CGAATGCC | -0.156
CCTCATCG | -0.121
AATGCACA | -0.0648
AGCTAATA | 0.074
CATCGGAA | 0.112
ATAACCGC | 0.059
ATCAGGCG | -0.0724
AACCCTTG | -0.094
CGTTTAGC | 0.0103
AAATTGAG | 0.0511
ATTAGCGG | -0.0852
GTGGAAAC | 0.164
